Measured values taken from paper PMC6919601, “Identification of Plasmodium dipeptidyl aminopeptidase allosteric inhibitors by high throughput screening” (PLoS ONE, 2019).
About 230 (0.21%) of roughly 110,000 compounds showed an effect of 50% or more. The list shows a part of the results. Where a SMILES comes first, the peptide text is derived from it. The star is where a group is joined. Cbz = O=C(OCc1ccccc1)*

What follows are compounds tested against DPAP1 (Plasmodium falciparum, UniProt Q8IIJ9) (assay: primary screen, percent inhibition; read by cleavage of a fluorogenic dipeptide substrate; higher = more effect of the substance).
Chain of DPAP1 (Q8IIJ9 whole entry, looked up): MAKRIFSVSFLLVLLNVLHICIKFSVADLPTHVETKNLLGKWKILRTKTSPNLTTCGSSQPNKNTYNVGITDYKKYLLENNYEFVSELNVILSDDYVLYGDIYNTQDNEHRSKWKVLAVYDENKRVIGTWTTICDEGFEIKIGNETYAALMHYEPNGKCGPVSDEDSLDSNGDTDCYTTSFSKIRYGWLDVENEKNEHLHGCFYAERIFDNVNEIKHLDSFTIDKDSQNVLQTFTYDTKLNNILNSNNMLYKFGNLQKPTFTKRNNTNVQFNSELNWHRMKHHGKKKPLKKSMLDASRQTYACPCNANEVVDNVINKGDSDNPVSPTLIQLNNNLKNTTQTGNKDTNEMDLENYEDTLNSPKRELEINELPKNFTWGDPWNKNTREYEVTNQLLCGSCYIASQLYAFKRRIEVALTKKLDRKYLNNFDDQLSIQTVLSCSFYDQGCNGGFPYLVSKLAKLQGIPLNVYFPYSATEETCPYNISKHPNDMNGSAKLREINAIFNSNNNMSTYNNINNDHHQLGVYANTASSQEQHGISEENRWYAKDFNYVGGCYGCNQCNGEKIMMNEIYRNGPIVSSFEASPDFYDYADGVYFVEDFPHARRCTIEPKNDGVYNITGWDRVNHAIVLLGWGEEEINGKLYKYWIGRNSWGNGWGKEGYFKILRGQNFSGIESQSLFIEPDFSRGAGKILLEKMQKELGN
Parameters: species or system P. falciparum D10 trophozoite lysates; single well
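Further: 30 min substrate incubation versus DMSO and 10 µM JCP410 controls.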

SMILES | % Inhibition @ 10 uM
O=S(=O)(c1ccccc1)n1nc(-c2ccccc2)nc1NCc1ccccc1 | -2.91%
Cc1sc(NC(=O)CSc2ccccc2)c(C(N)=O)c1-c1ccccc1 | 18.7%
CCCNC(=O)CNS(=O)(=O)c1c(C)cc(C)cc1C | -0.62%
COc1ccccc1OCC(=O)N(Cc1ccco1)Cc1ccco1 | 3.88%
COc1ccc(CCNC(=O)c2c(C)nn(-c3ccc(F)cc3)c2-n2cccc2)c(OC)c1 | -2.48%
CNC(=S)N(CCc1c(C)[nH]c2ccc(C)cc12)Cc1ccncc1 | -2.74%
CCN(C(=O)COc1ccccc1)c1ccc(C(O)(C(=O)OC)C(F)(F)F)cc1 (stereo not drawn) | 9.68%
Nc1ccccc1C(=O)NC1CCCCC1 | 4.05%
CCOc1ccc2nc(N3CCC(C(=O)NCc4ccc5c(c4)OCO5)CC3)sc2c1 | -3.35%
CCOc1cc(C2c3c(-c4cc(C)ccc4O)n[nH]c3C(=O)N2Cc2cccnc2)ccc1O (stereo not drawn) | -1.15%
Clc1ccccc1N1CCN(Cc2ccsc2)CC1 | -0.192%
CCCc1nn(C)c(C(N)=O)c1NC(=O)c1ccccc1OCC | 1.05%
COc1cccc(CN2CCN(Cc3ccccc3Br)CC2)c1 | -5.46%
COc1ccccc1-c1c(Cl)nc(Cl)c(=O)n1-c1ccccc1 | 1.43%
COc1cc(OC)c2c(C)cc(N3CCN(C)CC3)nc2c1 | -1.15%
COc1cccc(-c2cn3nc(CC(C)C)sc3n2)c1 | -8.39%
Cn1c(=O)[nH]c(=O)c2c1nc(N1CCCCCC1)n2Cc1ccc(Cl)cc1 | -1.79%
Cc1cc(O)c2c(C)c(CC(=O)NCCc3ccccc3F)c(=O)oc2c1 | 0.895%
CCOc1cccc(C(=O)Nc2ccc(Br)cn2)c1 | -7.34%
CC1=NN(c2ccc(C)cc2)C(=O)CC1 | -7.15%
O=C1CSc2nnc(-c3ccncc3)n2N1 | 6.01%

SMILES | % Inhibition @ 10 uM
CCOC(=O)C1=C(C)N=C(SCC(=O)O)NC1c1ccccc1 (stereo not drawn) | 1.13%
O=C(NC(Cc1ccccc1)C(=O)N1CCCC1C(=O)O)OCc1ccccc1 (stereo not drawn) (Cbz-Phe-Pro-OH; configuration not given here) | -1.47%
COc1ccccc1-c1c(C)nn2c(C)c(C(C)=O)cnc12 | 1.12%
COc1ccc(C(=O)NCC2OCCc3ccccc32)cc1OC (stereo not drawn) | 2.25%
CC(NC(=O)C1CCC(C)(C(=O)O)C1(C)C)c1ccccc1 (stereo not drawn) | 1.7%
CCOc1ccc(C(=O)Nc2ccc(S(=O)(=O)N3CCCC3)cc2)cc1 | 5.14%
COc1ccccc1/C=C/C1=NN(c2ccc(F)cc2)C(c2ccccc2OC)C1 (stereo not drawn) | -1.72%
Cc1ccc2nc(-c3ccc(NC(=O)c4ccc(Cl)cc4Cl)cc3)sc2c1 | 0.467%
COc1cc(-c2nnc3sc(-c4ccc(C)c(C)c4)nn23)cc(OC)c1OC | 29.8%
COc1ccc2[nH]c(C)c(CCNC(=O)c3cc(OC)c(OC)c(OC)c3)c2c1 | 2.18%
CCOC(=O)c1c(NC(=O)c2cc(-c3ccc(F)cc3)on2)sc(C(C)=O)c1C | 6.87%
Cc1cc(C)c(S(=O)(=O)N2CCc3ccccc3C2)c(C)c1 | -0.856%
CSc1nc(-c2ccccc2)nc(NC(=O)c2ccccc2)c1C(C)=O | -5.51%
COC(=O)c1ccccc1NC(=O)CCCC(=O)O | 2.4%
Cc1ccc(Cl)cc1N1CCN(C(=O)COc2ccc(S(=O)(=O)NC(C)(C)C)cc2)CC1 | 1.39%
CCCn1/c(=N\C(=O)c2cccc(OC)c2)c(C(=O)OCC)cc2c(=O)n3ccccc3nc21 | 3.61%
CC1(C)CC2=Nc3nc(SCCN4CCOCC4)nc(O)c3C(c3cccs3)C2=C(O)C1 (stereo not drawn) | 8.5%
Cc1cccc(CCNC(=O)C2CCCN(c3ncnc4c3nc3n4CCCCC3)C2)c1 (stereo not drawn) | -0.48%
COc1cccc(CN2CCN(Cc3ccc(C(F)(F)F)cc3)CC2)c1OC | 9.76%
O=C(C(=O)c1ccc(-c2ccccc2)cc1)c1ccccc1 | 4.35%
CCC(CC)NCc1ccc(OC)cc1OC | 4.3%

SMILES | % Inhibition @ 10 uM
O=C(NCCC1=CCCCC1)c1ccc(CNS(=O)(=O)c2ccc(Cl)cc2)cc1 | -5.64%
COc1ccccc1/N=c1/sc2ccccc2n1C | -6.43%
O=C(CCCOc1ccc(Cl)cc1Cl)NCc1nc2ccccc2[nH]1 | 7.24%
Fc1ccc(CN2CCN(C/C=C/c3ccccc3)CC2)cc1F | -2.56%
CCCN1CN(Cc2ccccc2)CC2=C1CC(C)(C)CC2=O | 7.94%
CCCS(=O)(=O)c1c(S(=O)(=O)CCC)c2ccccn2c1C(N)=O | -1.25%
CCOc1ccc(-c2cc(NC(=O)c3c(F)cccc3F)c(C(=O)O)s2)cc1 | 1.22%
COc1ccccc1NC(=O)C1=C(C)N=C2CC(C)(C)CC(O)=C2C1c1cccc(O)c1 (stereo not drawn) | -0.366%
CC(=O)NCc1cccc(CNC(C)=O)n1 | -2.63%
Cc1cccc(C(=O)Nc2c(-c3ccccc3)nc3ccccn23)c1 | 2.83%
O=C1OC(/C=C/c2ccccc2)=NC/1=C/c1cccs1 | -1.29%
CC1=NC2=C(C(=O)CC(C)(C)C2)C(c2ccccn2)/C1=C(/O)OC(C)C (stereo not drawn) | 2.22%
COc1ccccc1C(=O)Nc1c(O)oc2ccccc2c1=O | -3.9%
COc1ccc(/C=C2/NC(=O)N(Cc3ccccc3F)C2=O)cc1 | -3.63%
O=C1NC(=O)N(c2ccccc2)C(=O)/C1=C\Nc1ccc(S(=O)(=O)N2CCCCC2)cc1 | -2.8%
CCc1c(C)nc(Nc2nc(C)c3cc(C)ccc3n2)nc1O | -3.29%
COc1ccc(Br)cc1CNCCNC(=O)c1nonc1N | 3.84%
CN1CCN(c2ccc(NC(=O)c3cccc(Br)c3)cc2)CC1 | 8.43%
CC(NC(=O)Cn1ncc2c1-c1ccccc1OC2)c1ccc2c(c1)OCCO2 (stereo not drawn) | -6.07%
O=C1c2ccccc2COC12OCc1ccccc12 (stereo not drawn) | -5.7%
O=C(Nc1cccc(Cl)c1)N(CCN1CCOCC1)Cc1ccccc1F | -0.519%
